# Measured values from PubChem BioAssay AID1347073 (National Center for Advancing Translational Sciences (NCATS), 2019).
# Among all 45,000 compounds or so, about 200 (0.44%) were called active. Roughly 7% stayed inconclusive and do not appear here. Calls come from the whole dose curve; as a rule, active = well fitted activation curve with a large enough effect; inconclusive = small, poorly fitted or top-dose-only effect; inactive = no such curve, though single readings can be large or run the other way. The list shows a part of the results.
# Experiment: qHTS of TDP-43 Inhibitors: NCGC Sytravon Library Screen; note: 0% is about no effect; nearly all actives have a fitted effect of over 55% in size
# Conditions: yeast TDP-43 toxicity rescue, BacTiter-Glo growth, 24 h; series mostly up to 46.1 µM; growth rescue (activation): at the top concentration
# Procedure, shortened: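 TDP-43-expressing yeast, pregrown in raffinose, seeded at OD600 0.02 in galactose medium with compound for 24 hr at 30 deg C. Growth read by BacTiter-Glo luminescence, so rescue of toxicity appears as activation.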
row,Structure (SMILES),growth rescue (activation)
1,CCOC(=O)/C(C#N)=C/N1CCOCC1,inactive: 19.8%
2,CCOc1ccc(S(=O)(=O)N2CCCCC2)cc1NC(=O)c1ccccc1,inactive: -2.08%
3,COC(=O)N/N=C(\CCC(=O)O)c1cccs1,inactive: 7.82%
4,COC(=O)c1ccc(N2CCOCC2)c(NC(=O)c2cc3ccccc3o2)c1,inactive: -0.481%
5,COC(=O)c1sc2nc3c(c(-c4cccs4)c2c1N)CCCC3,inactive: -0.643%
6,Cc1cc(C(=O)Nc2ccc(C(=O)O)cc2)c(C)o1,inactive: -15.6%
7,CC1CN(C(=O)COC(=O)c2cc(Cl)ccc2[N+](=O)[O-])CC(C)O1 (configuration not stated),inactive: -18.6%
8,COc1ccccc1OCC(=O)N(Cc1nc(-c2ccccc2)no1)C(C)C,inactive: -34.3%
9,O=c1cc(CN2CCN(S(=O)(=O)c3ccccc3[N+](=O)[O-])CC2)nc2sccn12,inactive: 9.22%
10,COc1ccc(CNC(=O)CN(C(=O)c2csnn2)c2ccc(F)cc2)cc1,inactive: 1.23%
11,C[C@H](NC(=O)Cc1cccc2ccccc12)C(=O)N1CCOCC1,inactive: 1.56%
12,C=C(C)Cn1c2ccc(NC(=O)CCc3cccnc3)cc2c(=O)n1C,inactive: 1.56%
13,Cc1ccc(S(=O)(=O)N(C)C)cc1NC(=O)COC(=O)CCC(=O)c1ccc(F)cc1,inactive: 1.65%
14,CCc1cc2c(SCC(=O)N(C)C3CCS(=O)(=O)C3)ncnc2s1 (configuration not stated),inactive: -14.4%
15,COC(=O)C1CN(C(=O)COc2ccc(C)c(C)c2)c2ccccc2O1 (configuration not stated),inactive: 16.5%
16,Cc1ccc(NC(=O)Cn2nc(C(=O)O)c3ccccc3c2=O)c([N+](=O)[O-])c1,inactive: 7.89%
17,Cc1ccc(-n2cnc3ncnc(-c4ccccc4)c32)cc1,inactive: 2.22%
18,OC[C@H]1O[C@@H](c2nc(-c3ccc(CN4CCOCC4)cc3)no2)[C@H](O)[C@@H](O)[C@H]1O,inactive: -1.35%
19,Cc1c(Cl)c([N+](=O)[O-])nn1CC(=O)NCCCN1CCOCC1,inactive: -6.97%
20,Cc1ccc(C(=O)N/C(=C/c2ccc(Cl)cc2)C(=O)NCC2CCCO2)cc1 (configuration not stated),inactive: 13.6%
21,CCCC(=O)N(Cc1cc(=O)[nH]c2ccccc12)c1ccc(OC)cc1,inactive: 5%
22,CCCN1Cc2cccc(C(=O)NC(CC(=O)OCC)c3ccc(C)cc3)c2C1=O (configuration not stated),inactive: -2.4%
23,Cc1cc(C)n(-c2cc(C(=O)O)cc(C(=O)O)c2)n1,inactive: -9.6%
24,CN(C(=O)CN1C(=O)C2C3CC(C(Br)C3Br)C2C1=O)C1CCCCC1 (configuration not stated),inactive: 13.3%
25,COc1ccc(NC(=O)c2ccc(COCC(F)(F)C(F)F)cc2)cc1OC,inactive: 28.8%
26,CCCc1cc(N2CCC(C(N)=O)CC2)nc(-c2ccccc2)n1,inactive: 4.98%

row,Structure (SMILES),growth rescue (activation)
1,O=C(NC(=S)Nc1sc2c(c1C(=O)O)CCCC2)c1ccccc1,inactive: -12.6%
2,CN(C)Cc1c(O)ccc2occ(C(=O)c3ccc(F)cc3)c12,inactive: -5.74%
3,Cc1oc(-c2cc3c(cc2Cl)OCO3)nc1CN1CCCC(C(=O)N2CCOCC2)C1 (configuration not stated),inactive: -8.03%
4,O=C(CNC(=O)c1ccccc1)Nc1ccsc1C(=O)O,inactive: -2.44%
5,CC1CCN(C(=O)CCNS(=O)(=O)c2ccc(Cl)cc2)CC1,inactive: -6.33%
6,COc1ccc(CCN2C(=O)/C(=C\c3ccco3)SC2=S)cc1OC,inactive: 13%
7,CC1(C)CC(=O)C2=C(C1)Nc1ccccc1NC2c1ccc(F)cc1 (configuration not stated),inactive: -3.05%
8,CN(c1ccccc1)S(=O)(=O)c1cccc(NC(=O)CSc2ncc(C(F)(F)F)cc2Cl)c1,inactive: -6.66%
9,COc1ccc(C2Nc3ccccc3C(=O)N2NS(C)(=O)=O)cc1OC (configuration not stated),inactive: -2.55%
10,CCc1nc2c(OCc3ccc(F)cc3)cccn2c1N(C)C(=O)c1ccco1,inactive: 4.59%
11,CCOC(=O)c1ccc(NC(=O)Cn2ncc(Cl)c(Cl)c2=O)cc1,inactive: -15.3%
12,CN(CC(=O)NCCc1ccc(S(N)(=O)=O)cc1)CC(=O)Nc1ccccc1C(F)(F)F,inactive: 5.4%
13,O=C1/C(=C\c2cc(Cl)c(O)c(Cl)c2)SC(=S)N1Cc1ccccc1,inactive: -6.17%
14,NC(=O)c1cccc(-c2coc3c(C(=O)NC4CCCCC4)cccc23)c1,inactive: 27.9%
15,Cc1nc(NCCc2ccc(F)cc2)c(C#N)c(C)c1[N+](=O)[O-],inactive: 17.5%
16,CCCCNC(=S)N/N=C/c1cccc(OCC)c1O,inactive: 11.8%
17,COc1cc(/C=C/C(=O)OCC(=O)NCc2ccco2)cc(OC)c1OC,inactive: -2.01%
18,COc1ccc(NC(=O)C2CCC(CNc3c(N4CCCCC4)c(=O)c3=O)CC2)cc1OC (configuration not stated),inactive: 3.78%
19,Cc1ccccc1OCc1nnc(SCC(=O)NC2CCCCC2)o1,inactive: 11.5%
20,Cc1ccc2cc(CCl)c(Cl)nc2c1,inactive: -12.5%
21,CCOC(=O)C1CCCN(C(=O)/C(=C/c2ccco2)NC(=O)c2ccccc2)C1 (configuration not stated),inactive: 6.97%
22,N#Cc1ccc(S(=O)(=O)N2CCC(N3CCCCC3)CC2)cc1,inactive: 1.57%
23,Cc1cc(C)c(C#N)c(SCC(=O)Nc2c(C)n(C)n(-c3ccccc3)c2=O)n1,inactive: -4.13%
24,COc1cc(CO)ccc1OCC(=O)Nc1ccc(Br)cc1,inactive: -0.29%
25,COCCCNC(=O)C(=O)C1C(=O)Nc2ccccc21 (configuration not stated),inactive: 11.9%
26,CC(=O)Oc1ccc(/C=C2\C=C(c3ccc(C)cc3)OC2=O)cc1,inactive: -13.2%
